PubChem BioAssay AID651820 (National Center for Advancing Translational Sciences (NCATS), 2012)
Hit rate of the full screen: of about 340,000 compounds, about 12,000 (3.5%) were called active. The shares of active, inactive and inconclusive entries below differ from those in the screen. The call rests on the fitted dose curve; in most records, active means well fitted inhibition curve with a large enough effect; inconclusive means small, poorly fitted or top-dose-only effect, or another doubt; inactive means no such curve, though single readings can be large or run the other way. Potencies of inconclusive entries are left out as doubtful fits.

Experiment: qHTS Assay for Inhibitors of Hepatitis C Virus (HCV)
Details: Huh7.5.1 HCVcc-Cre (HCVcc is cell-culture hepatitis C virus) infection, luciferase reporter, 44 h; activity change, negative = inhibition: at 41.8 µM (top of the series) unless noted
Method in brief: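 Compounds are dispensed onto cells plated 4 h earlier at 1,000 per well, with HCVcc-Cre virus (about 0.5 moi) added next. Following 44 h of culture, luminescent signal is measured for 15 sec after 15 min with substrate at room temperature.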
On the % scale 0 is the no-effect control and ±100 the full control effect; potency means the concentration at half of the fitted maximal effect; tags describe the fitted curve by direction and shape.

SMILES | activity change, negative = inhibition | Potency
CCOC(=O)c1c(NC(=S)N2CCN(C)CC2)sc(C)c1-c1ccccc1 | inactive: -7.33% | –
Nc1nc(-c2ccccc2)nc2sc3c(c12)CCCC3 | – | inconclusive [inhibitor, single point]
O=C(c1ccncc1)N(Cc1ccco1)Cc1cc2ccccc2[nH]c1=O | inactive: 9.27% | –
COC(=O)c1nc(N)sc1-c1ccccc1 | inactive: 9.22% | –
CCCCn1c(=O)c2ccccc2c2ccccc2c1=O | – | inconclusive [inhibitor, single point]
COc1cc2c(cc1OC)C(Cc1ccc(O)c(Oc3ccc(C[C@H]4c5cc(OC)c(OC)cc5CCN4C)cc3)c1)N(C)CC2 (some centres not stated) | inactive: -1.63% | –
O=C(O)c1ccc(N/N=C/C2=Cc3ccccc3OC2)cc1 | inactive: 21.3% | –
Nc1c(Cl)cc(C2=NCCn3nc4cc([N+](=O)[O-])ccc4c32)cc1Cl | – | inconclusive [inhibitor, partial curve]
Cc1ccc(-n2c(CNc3cccc(Cl)c3)n[nH]c2=S)cc1 | inactive: 15.2% | –
O=C(COc1ccccc1)Nc1cccc(-c2cn3cccnc3n2)c1 | inactive: -27.7% | –
CC(C)c1ccc(Nc2nnc(SCC(=O)NCC3CCCO3)s2)cc1 (configuration not stated) | – | inconclusive [inhibitor, single point]
CCc1nnc2c(N(C)S(=O)(=O)c3ccc(C)cc3)nc3ccccc3n12 | inactive: 5.51% | –
Cc1ccc(-c2nnn(CC(=O)N3CCC(C)CC3)n2)o1 | inactive: -5.24% | –
CC1O[C@@H](O[C@H](C)CC[C@@H](C)O)C(O)C[C@H]1O (some centres not stated) | inactive: 9.68% | –
O=C(NCCC1=CCCCC1)c1ccc2c(=O)n3c(nc2c1)CCCCC3 | – | inconclusive [inhibitor, partial curve, poor fit]
O=C(CN1CCCN(S(=O)(=O)c2ccc(Br)s2)CC1)Nc1ccc(Cl)cc1 | – | inconclusive [inhibitor, single point]
CCC(=O)Nc1cc(Cl)ccc1N1CCN(C(=O)CC)CC1 | inactive: -10.6% | –
CC(=O)N=c1c(C#N)cc2c(=O)n3ccccc3nc2n1Cc1ccccc1 | – | inconclusive [inhibitor, full curve]
CC(=O)Oc1cc2oc(=O)cc(C)c2cc1OC(C)=O | – | inconclusive [inhibitor, single point]
O=C1C2=C(NC(=S)NC2c2ccc(Cl)cc2)NC(c2ccc(Cl)cc2)N1c1ccc(Cl)cc1 (configuration not stated) | inactive: -26.3% | –
O=C(O)CSc1cc(NS(=O)(=O)c2ccc(Cl)cc2)c2ccccc2c1O | – | inconclusive [inhibitor, single point]
Cc1ccccc1-n1c(SCc2cccc(F)c2)nc2[nH]ncc2c1=O | inactive: -1.35% | –
CCN(Cc1ccc2c(c1)OCO2)C(=O)CSc1nc(C)nc2sc(C)c(C)c12 | – | inconclusive [inhibitor, single point]
CN(C)S(=O)(=O)c1ccc(C(=O)Nc2nc(-c3ccccc3)c(C(=O)c3ccccc3)s2)cc1 | inactive: 12.1% | –
Cc1cccc(C2=NN(c3ccc(Br)cc3)[C@@H](C(=O)N3CCOC3=O)[C@@H]2c2ccc(Cl)cc2)c1 | – | inconclusive [inhibitor, single point]
C=CCN(C(=O)c1csnn1)C(C(=O)NC1CCCC1)c1ccc(OC)cc1 (configuration not stated) | inactive: 9.61% | –

SMILES | activity change, negative = inhibition | Potency
Brc1ccc(-c2nnc3ccc(Nc4ccccc4)nn23)cc1 | inactive: 12.8% | –
CC(C)n1c(CNC(=O)c2ccccc2F)nnc1SCC(=O)NC1CCCCC1 | inactive: -0.136% | –
CCOC(=O)c1cc2c(s1)-c1ccccc1CC2 | inactive: 4.32% | –
CCC1CCCCN1c1ccc([N+](=O)[O-])cc1/C=N/NC(=O)Cn1c2ccccc2c(=O)c2ccccc21 (configuration not stated) | – | inconclusive [inhibitor, full curve]
O=C(c1sc(N2CCOCC2)nc1-c1ccccc1)N1CCCCC1 | inactive: 12.5% | –
COc1ccc(CCNC(=O)c2ccc3c(c2)N(Cc2ccc(F)cc2)CCS3)cc1OC | – | inconclusive [inhibitor, partial curve]
Cc1ccc(S(=O)(=O)N(Cc2cc3ccccc3[nH]c2=O)CC2CCCO2)cc1 (configuration not stated) | inactive: -14.3% | –
COCCNc1nc(-c2cc3ccccc3o2)cs1 | – | inconclusive [inhibitor, single point]
Cc1ccc(C)c(NC(=S)NCc2cccn2C)c1 | – | inconclusive [inhibitor, full curve]
O=C(OCn1ncc(Br)c(Br)c1=O)c1ccccc1Cl | – | inconclusive [inhibitor, single point]
CC(=O)NCc1ccc(-c2csc(NC(=O)CCCc3nc4ccccc4c(=O)[nH]3)n2)cc1 | inactive: -4.47% | –
CC(=O)c1cnc(N(C)C)s1 | inactive: 14.5% | –
Cc1noc(C)c1CSCC(=O)Nc1nc(-c2ccc(F)c(F)c2)cs1 | – | active: 12.6 µM
C=CCNC(=O)c1nc2ccccc2s1 | inactive: -5.36% | –
Cc1cc(SCC(=O)c2ccc(Cl)cc2)nc(=O)[nH]1 | inactive: 0.52% | –
COc1cc(C(C(=O)NC2CCCCC2)N(C(=O)c2snc(C(N)=O)c2N)c2ccc(C)cc2)ccc1O (configuration not stated) | – | inconclusive [inhibitor, partial curve, poor fit]
COc1ccc(C2CC(=O)C(CS(=O)(=O)c3ccccc3)C(=O)C2)cc1 (configuration not stated) | inactive: 18.3% | –
O=S(=O)(NCC(Nc1ccc(Cl)cc1)c1ccccc1)c1ccccc1 (configuration not stated) | – | inconclusive [inhibitor, single point]
O=C(N1CCCCC1)N1CCN(C(=O)N(c2ccccc2)c2ccccc2)CC1 | – | inconclusive [inhibitor, partial curve]
COc1cc(NC(=O)Nc2ccccc2)c(OC)cc1NC(=O)CN1CCCCC1 | – | active: 11.2 µM
CC(C)Cn1c(-c2cc([N+](=O)[O-])ccc2Cl)nc2c1c(=O)[nH]c(=O)n2Cc1ccccc1 | – | inconclusive [inhibitor, single point]
COc1cc(/C=N/NC(=O)c2cc(-c3ccccc3)sc2N)cc(OC)c1OC | – | inconclusive [inhibitor, single point]
COC(=O)/C=C/COc1ccccc1[N+](=O)[O-] | inactive: -5.38% | –
COc1ccccc1NC(=O)C(C)OC(=O)CCNS(=O)(=O)c1cccc(C(F)(F)F)c1 (configuration not stated) | – | inconclusive [inhibitor, single point]
COc1ccc(C(=O)NC2CCCCC2)cc1S(=O)(=O)N1CCCC1 | – | inconclusive [inhibitor, single point]
CCn1c(SCC(=O)c2ccccc2)nc2ccccc2c1=O | inconclusive: -30.2% [inhibitor] | –

SMILES | activity change, negative = inhibition | Potency
COc1ccccc1C(=O)Nc1nnc(-c2ccc3c(c2)CCCC3)o1 | inactive: -8.43% | –
CCOC(=O)c1sc(N2N=C(C)C(N=Nc3cccc(C)c3)C2=O)nc1C (configuration not stated) | – | inconclusive [inhibitor, partial curve]
CC1CN=C(Nc2ccccc2)S1 (configuration not stated) | inactive: 8.17% | –
CC1CCC(NC(=O)Cn2cnc3sccc3c2=O)CC1 (configuration not stated) | inactive: 11.4% | –
Cc1sc(NC(=O)CS(=O)(=O)c2ccccc2)c(C#N)c1C | inactive: 10.9% | –
CSc1cccc(NC(=O)Nc2nc3c(C)cccc3s2)c1 | – | inconclusive [inhibitor, partial curve]
CCCCOC(=O)c1cc(=O)[nH]c(=O)[nH]1 | inactive: 1.47% | –
C=CCn1c(=N)n(CC(=O)c2ccccc2)c2ccccc21 | – | inconclusive [inhibitor, single point]
CCn1c(=O)c([N+](=O)[O-])c(N2CCOCC2)c2ccccc21 | inactive: -3.21% | –
CC1Cc2ccccc2N1Cc1cc(=O)c(OCC(=O)Nc2ccccc2)co1 (configuration not stated) | – | inconclusive [inhibitor, partial curve]
CCCOc1ccc(C(=O)Nc2nc(C)c(Cc3ccc4c(c3)OCO4)s2)cc1 | – | active: 3.55 µM
Cc1ccc(-c2csc(NC(=O)CSc3nc4ccccc4c(=O)n3CCCN(C)C)n2)cc1 | – | active: 1.41 µM
OC1(c2cccc(C(F)(F)F)c2)CCN(c2ncnc3c2[nH]c2ccccc23)CC1 | – | inconclusive [inhibitor, partial curve]
COc1cc(C(=O)NCc2ccc(S(N)(=O)=O)cc2)ccc1OCC(=O)Nc1cccc(C(F)(F)F)c1 | – | inconclusive [inhibitor, full curve, poor fit]
COc1ccc2nc(/C(C#N)=C\c3ccc(Oc4ccc([N+](=O)[O-])cn4)cc3)[nH]c2c1 | – | inconclusive [inhibitor, full curve]
CCn1ncc(Cl)c1C(=O)Nc1cc(Cl)ccc1Cl | – | inconclusive [inhibitor, single point]
CCC(=O)Oc1ccc2ccccc2c1CNC(=O)c1ccccc1 | – | inconclusive [inhibitor, single point]
O=C(NCc1ccccc1)c1ncn(Cc2ccccc2)c1C(=O)NCc1ccccc1 | inactive: -29.4% | –
O=[N+]([O-])c1ccc(S(=O)(=O)NNC(=S)NCCc2ccccc2)cc1 | inactive: 19.1% | –
Cc1ccc2c(CC(=O)NCc3ccco3)coc2c1C | – | inconclusive [inhibitor, full curve]
COCCn1c(C)cc(/C=C2/NC(=O)N(Cc3ccc(C)cc3)C2=O)c1C | – | inconclusive [inhibitor, single point]
CCCCCCCCCn1c2c(c(=N)c3c1CCC3)CCC2 | – | active: 0.891 µM
CCN(CC)CCn1c2c(c(SCC(=O)Nc3nc4ccccc4s3)nc1=O)CCCC2 | – | inconclusive [inhibitor, single point]
O=C(NC(=O)c1ccccc1O)c1ccc(C(F)(F)F)cc1 | – | inconclusive [inhibitor, single point]
COc1ccccc1-n1c(-c2ccc(Cl)cc2)c[nH]c1=S | – | inconclusive [inhibitor, single point]
